Experimental data taken from the antibiotic and cytotoxicity screens of Wong et al. (2023).
This is one part of the list.

What follows are compounds tested on S. aureus RN4220 (assay: growth inhibition call (relative growth <= 0.2)). Conditions: 50 µM.

Growth inhibition call, inactive:
C[C@H](CO)N1C[C@H](C)[C@@H](CN(C)S(=O)(=O)c2cccs2)OCCCC[C@H](C)Oc2ccc(NC(=O)c3ccccc3)cc2C1=O
CN(C)CC#Cc1ccc([C@@H]2[C@@H](CO)N3C(=O)CN(C(=O)CN(C)C)C[C@@H]23)cc1
CC(C)CN1C(=O)[C@@]2(Cc3ccccc31)c1ccccc1C(=O)N(Cc1ccccc1Cl)[C@H]2c1ccc(CO)cc1
C[C@@H]1CCCCO[C@H](CN(C)C)[C@H](C)CN([C@H](C)CO)C(=O)c2cc(NC(=O)Nc3ccc(C(F)(F)F)cc3)ccc2O1
C[C@@H]1CN([C@@H](C)CO)C(=O)c2cc(C#Cc3ccccn3)cnc2O[C@H]1CN(C)C(=O)CCN1CCCCC1
C[C@@H]1CCCCO[C@@H](CN(C)C(=O)c2ccccc2)[C@@H](C)CN([C@H](C)CO)C(=O)c2cc(NC(=O)Nc3ccc(F)cc3)ccc2O1
Cc1noc(C)c1NC(=O)Nc1cccc2c1O[C@@H](CN(C)Cc1ccc(Cl)c(Cl)c1)[C@H](C)CN([C@@H](C)CO)C2=O
CN1C(=O)COc2cc(N)ccc21
C[C@H](CO)N1C[C@H](C)[C@@H](CN(C)Cc2ccc(Cl)c(Cl)c2)OCCCC[C@H](C)Oc2ccc(NS(=O)(=O)c3ccccc3)cc2C1=O
CCS(=O)(=O)Nc1ccc2c(c1)C(=O)N(C)[C@H]1CC[C@H](CC(=O)N[C@@H]3CCN(Cc4ccccc4)C3)O[C@@H]1CO2
CC(C)NC(=O)N(C)C[C@@H]1Oc2c(NS(=O)(=O)c3ccccc3)cccc2C(=O)N([C@H](C)CO)C[C@@H]1C
CO[C@H]1CN(C)C(=O)c2cc(NS(=O)(=O)c3cn(C)cn3)ccc2OC[C@@H](C)N(Cc2cccc(F)c2)C[C@H]1C
COc1ccc(NC(=O)N(C)C[C@H]2Oc3c(NC(=O)Nc4cccc5ccccc45)cccc3C(=O)N([C@@H](C)CO)C[C@@H]2C)cc1
CC(=O)c1ccc[nH]1
C[C@@H]1CCCCO[C@H](CN(C)C(=O)c2ccccc2)[C@@H](C)CN([C@@H](C)CO)C(=O)c2cc(NC(=O)Nc3ccccc3)ccc2O1
Cc1ccc(S(=O)(=O)Nc2ccc3c(c2)C(=O)N([C@H](C)CO)C[C@@H](C)[C@@H](CN(C)S(=O)(=O)c2cccs2)O3)cc1
C[C@H](CO)N1C[C@H](C)[C@@H](CN(C)CC2CCCCC2)OCCCC[C@H](C)Oc2ccc(NC(=O)Nc3cccc4ccccc34)cc2C1=O
Cc1cc(C(=O)Nc2cccc3c2O[C@@H](CN(C)C(=O)Nc2ccc4c(c2)OCO4)[C@@H](C)CN([C@H](C)CO)C3=O)n(C)n1
C[C@@H]1CN([C@H](C)CO)C(=O)Cc2cc(NC(=O)Cc3cn(C)c4ccccc34)ccc2O[C@H]1CN(C)S(C)(=O)=O
C[C@H]1CC=CC[C@@H](c2cccc(Cl)c2)NC(=O)[C@H](Cc2ccccc2)N(C)C(=O)c2ccccc2O1
C[C@H](CO)N1C[C@H](C)[C@H](CN(C)Cc2ccc(C(=O)Nc3ccccc3N)cc2)Oc2ccc(NS(C)(=O)=O)cc2CC1=O
C[C@H](CO)N1C[C@H](C)[C@H](CN(C)Cc2ccc(Oc3ccccc3)cc2)Oc2ccc(NC(=O)Cc3cn(C)c4ccccc34)cc2C1=O
